From the supplement of paper PMC4967469
IC50 is the fitted dose that halves viability relative to control wells, and lower means more sensitive; fits outside the tested doses are given as limits. AUC is the area under the same curve over the 256-fold range up to the top dose, as a fraction; values near 1 show little effect. For some of these results: The top dose, if marked as inferred, was calculated from the reported fits. For some of these results: Where an entry number is given, a second screen of the drug exists; the two often differ.

Key:
Assay in all cases: Viability of human cancer cell lines after 72 h of drug (GDSC screen)
(5Z)-7-Oxozeaenol = compound: COc1cc(O)c2c(c1)/C=C/C[C@H](O)[C@H](O)C(=O)/C=C\C[C@H](C)OC2=O [(5Z)-7-Oxozeaenol]; conditions: top dose 10 µM; top dose inferred
Description: (§1)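 Human cancer cell lines in 384-well plates, medium with 10% serum, drug for 72 h over a 256-fold dose range (nine 2-fold or five 4-fold steps up to the top dose). Adherent lines were fixed and stained with the nucleic acid dye Syto60, suspension lines read with resazurin; signal relative to control wells, capped at 0 and 100%. One two-parameter sigmoid per drug and line, fitted in a mixed model over all curves with the slope shared within a line.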

Thapsigargin = compound: C/C=C(/C)C(=O)O[C@H]1C(C)=C2[C@H]([C@@H]1OC(=O)CCCCCCC)[C@@](C)(OC(C)=O)C[C@H](OC(=O)CCC)[C@@]1(O)[C@H]2OC(=O)[C@@]1(C)O [Thapsigargin]; conditions: top dose 0.512 µM; top dose inferred
Description: as §1

ABT-888 = compound: C[C@]1(c2nc3c(C(N)=O)cccc3[nH]2)CCCN1 [ABT-888]; conditions: top dose 5 µM; top dose inferred
Description: as §1

MPS-1-IN-1 = compound: COc1cc(N2CCC(O)CC2)ccc1Nc1cc(Nc2ccccc2S(=O)(=O)C(C)C)c2cc[nH]c2n1 [MPS-1-IN-1]; conditions: top dose 20 µM; top dose inferred
Description: as §1

CHIR-99021 = compound: Cc1cnc(-c2cnc(NCCNc3ccc(C#N)cn3)nc2-c2ccc(Cl)cc2Cl)[nH]1 [CHIR-99021]
Description: as §1

KU-55933 = compound: O=c1cc(-c2cccc3c2Sc2ccccc2S3)oc(N2CCOCC2)c1 [KU-55933]; conditions: top dose 10 µM
Description: as §1

GSK269962A = compound: CCn1c(-c2nonc2N)nc2cnc(Oc3cccc(NC(=O)c4ccc(OCCN5CCOCC5)cc4)c3)cc21 [GSK269962A]; conditions: top dose inferred
Description: as §1

Cytarabine = compound: Nc1ccn([C@@H]2O[C@H](CO)[C@@H](O)[C@@H]2O)c(=O)n1 [Cytarabine]; conditions: top dose 2 µM
Description: as §1

CP466722 = compound: COc1cc2ncnc(-n3nc(-c4ccccn4)nc3N)c2cc1OC [CP466722]; conditions: top dose 16 µM; top dose inferred
Description: as §1

Zibotentan = compound: COc1nc(C)cnc1NS(=O)(=O)c1cccnc1-c1ccc(-c2nnco2)cc1 [Zibotentan]; conditions: top dose 20 µM; top dose inferred
Description: as §1

ABT-869 = compound: Cc1ccc(F)c(NC(=O)Nc2ccc(-c3cccc4[nH]nc(N)c34)cc2)c1 [ABT-869]; conditions: top dose 1.024 µM; top dose inferred
Description: as §1

QL-X-138 = compound: C=CC(=O)Nc1cc(-n2c(=O)ccc3cnc4ccc(-c5cn[nH]c5)cc4c32)ccc1C [QL-X-138]; conditions: top dose 10.24 µM; top dose inferred
Description: as §1

[1] = top dose 2.56 µM, screen: GDSC drug entry 154
[2] = top dose 10 µM, screen: GDSC drug entry 1241, top dose inferred
[3] = top dose 5 µM, screen: GDSC drug entry 1192
[4] = top dose 2.5 µM, screen: GDSC drug entry 127

| Cell Line | AUC ((5Z)-7-Oxozeaenol) | IC50 ((5Z)-7-Oxozeaenol) [µM] | AUC (Thapsigargin) | IC50 (Thapsigargin) [µM] | AUC (ABT-888) | IC50 (ABT-888) [µM] | AUC (MPS-1-IN-1) | IC50 (MPS-1-IN-1) [µM] | AUC (CHIR-99021; [1]) | IC50 (CHIR-99021; [1]) [µM] | AUC (CHIR-99021; [2]) | IC50 (CHIR-99021; [2]) [µM] | AUC (KU-55933) | IC50 (KU-55933) [µM] | AUC (GSK269962A; [3]) | IC50 (GSK269962A; [3]) [µM] | AUC (Cytarabine) | IC50 (Cytarabine) [µM] | AUC (CP466722) | IC50 (CP466722) [µM] | AUC (Zibotentan) | IC50 (Zibotentan) [µM] | AUC (ABT-869) | IC50 (ABT-869) [µM] | AUC (QL-X-138) | IC50 (QL-X-138) [µM] | AUC (GSK269962A; [4]) | IC50 (GSK269962A; [4]) [µM] |
| --- | --- | --- | --- | --- | --- | --- | --- | --- | --- | --- | --- | --- | --- | --- | --- | --- | --- | --- | --- | --- | --- | --- | --- | --- | --- | --- | --- | --- |
| PANC-04-03 (pancreas, adherent) | 0.72 | 3.89 | 0.433 | 0.0188 | 0.975 | > 5 | 0.967 | > 20 | 0.976 | > 2.56 | 0.965 | > 10 | 0.942 | > 10 | 0.975 | > 5 | 0.905 | > 2 | 0.944 | > 16 | 0.972 | > 20 | 0.976 | > 1.02 | 0.866 | > 10.2 | – | – |
| PC-3 [JPC-3] (lung adenocarcinoma, adherent) | 0.761 | 4.68 | 0.585 | 0.0592 | 0.981 | > 5 | 0.923 | > 20 | 0.977 | > 2.56 | 0.959 | > 10 | 0.959 | > 10 | 0.921 | > 5 | 0.871 | > 2 | 0.729 | 5.67 | 0.978 | > 20 | 0.978 | > 1.02 | 0.66 | 2.07 | – | – |
| PCI-6A (head and neck, adherent) | 0.965 | > 10 | 0.194 | 0.00404 | 0.956 | > 5 | 0.881 | > 20 | 0.988 | > 2.56 | 0.978 | > 10 | 0.923 | > 10 | 0.986 | > 5 | 0.677 | 0.386 | 0.896 | > 16 | 0.983 | > 20 | 0.982 | > 1.02 | 0.663 | 1.8 | – | – |
| PCI-15A (head and neck, adherent) | 0.787 | 4.39 | 0.397 | 0.0167 | 0.875 | 4.97 | 0.986 | > 20 | 0.986 | > 2.56 | 0.956 | > 10 | 0.717 | 2.58 | 0.963 | > 5 | 0.987 | > 2 | 0.851 | 12.4 | 0.976 | > 20 | 0.982 | > 1.02 | 0.836 | 6.85 | – | – |
| PCI-30 (head and neck, adherent) | 0.741 | 3.65 | 0.891 | > 0.512 | 0.927 | > 5 | 0.96 | > 20 | 0.968 | > 2.56 | 0.927 | > 10 | 0.967 | > 10 | 0.887 | > 5 | 0.781 | 1.03 | 0.965 | > 16 | 0.979 | > 20 | 0.974 | > 1.02 | 0.901 | > 10.2 | – | – |
| PE/CA-PJ15 (head and neck, adherent) | 0.66 | 1.81 | 0.979 | > 0.512 | 0.941 | > 5 | 0.948 | > 20 | 0.986 | > 2.56 | 0.958 | > 10 | 0.918 | > 10 | 0.945 | > 5 | 0.85 | 1.71 | 0.959 | > 16 | 0.985 | > 20 | 0.982 | > 1.02 | 0.898 | > 10.2 | – | – |
| PL4 (pancreas, adherent) | 0.591 | 1.12 | 0.493 | 0.0306 | 0.987 | > 5 | 0.974 | > 20 | 0.987 | > 2.56 | 0.962 | > 10 | 0.953 | > 10 | 0.976 | > 5 | 0.865 | 1.87 | 0.94 | > 16 | 0.987 | > 20 | 0.982 | > 1.02 | 0.903 | > 10.2 | – | – |
| RC-K8 (B-cell lymphoma, suspension) | 0.867 | 7.08 | 0.654 | 0.0801 | 0.992 | > 5 | 0.954 | > 20 | 0.991 | > 2.56 | 0.962 | > 10 | 0.98 | > 10 | 0.98 | > 5 | 0.99 | > 2 | 0.929 | > 16 | 0.992 | > 20 | 0.993 | > 1.02 | 0.927 | > 10.2 | 0.984 | > 2.5 |
| RCM-1 (large intestine, adherent) | 0.709 | 2.79 | 0.649 | 0.091 | 0.984 | > 5 | 0.98 | > 20 | 0.96 | > 2.56 | 0.857 | > 10 | 0.982 | > 10 | 0.9 | > 5 | 0.885 | > 2 | 0.931 | > 16 | 0.984 | > 20 | 0.982 | > 1.02 | 0.97 | > 10.2 | – | – |
| RERF-LC-KJ (lung adenocarcinoma, adherent) | 0.818 | 5.84 | 0.582 | 0.0539 | 0.987 | > 5 | 0.943 | > 20 | 0.98 | > 2.56 | 0.971 | > 10 | 0.929 | > 10 | 0.941 | > 5 | 0.779 | 0.839 | 0.82 | 9.5 | 0.983 | > 20 | 0.982 | > 1.02 | 0.893 | > 10.2 | – | – |
